Experimental data: PubChem BioAssay (NCI)
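Growth conditions: 96-well plates. Treatment: test compound, 48 hours, 5 concentrations. Analysis: linear interpolation between bracketing concentrations; unreached endpoints set to highest concentration. GI50 is the concentration that inhibits growth by half.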 Not every entry of the source has a single result; some have several. The list is limited to them. The source may hold further records. For part of these data: A record mostly stands for its own series of concentrations, which the source does not state; a value can be the end of its range. For part of these data: Values that stand side by side are repeats across runs, samples, wells, individuals or studies. Records carry a tag for their origin. Letters count within one entry.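 TGI: total growth inhibition.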

Columns and labels:
Test in all cases: NCI tumour cell line growth inhibition, 48 h
MDA-MB-231 breast = test system: MDA-MB-231 breast
NCI-H226 lung = test system: NCI-H226 lung
M14 melanoma = test system: M14 melanoma
HL-60(TB) leukemia = test system: HL-60(TB) leukemia
K-562 leukemia = test system: K-562 leukemia
CCRF-CEM leukemia = test system: CCRF-CEM leukemia
SR leukemia = test system: SR leukemia
SK-MEL-2 melanoma = test system: SK-MEL-2 melanoma
MDA-MB-435 = test system: MDA-MB-435
HCT-15 colon = test system: HCT-15 colon
MCF7 breast = test system: MCF7 breast
MDA-N = test system: MDA-N
HCT-116 colon = test system: HCT-116 colon
SF-295 CNS = test system: SF-295 CNS
NCI-H460 lung = test system: NCI-H460 lung
SN12C renal = test system: SN12C renal
DMS 273 small cell lung = test system: DMS 273 small cell lung
ACHN renal = test system: ACHN renal
PC-3 prostate = test system: PC-3 prostate
RPMI-8226 leukemia = test system: RPMI-8226 leukemia
786-0 renal = test system: 786-0 renal
SK-MEL-28 melanoma = test system: SK-MEL-28 melanoma
SNB-19 CNS = test system: SNB-19 CNS
BT-549 breast = test system: BT-549 breast
COLO 205 colon = test system: COLO 205 colon
TK-10 renal = test system: TK-10 renal
OVCAR-5 ovarian = test system: OVCAR-5 ovarian
SW-620 colon = test system: SW-620 colon
DMS 114 small cell lung = test system: DMS 114 small cell lung
SF-539 CNS = test system: SF-539 CNS
DLD-1 colon = test system: DLD-1 colon
MOLT-4 leukemia = test system: MOLT-4 leukemia
U251 CNS = test system: U251 CNS
UACC-62 melanoma = test system: UACC-62 melanoma
NCI-H23 lung = test system: NCI-H23 lung
SNB-75 CNS = test system: SNB-75 CNS
P388 leukemia = test system: P388 leukemia
CAKI-1 renal = test system: CAKI-1 renal
LOX IMVI melanoma = test system: LOX IMVI melanoma
HCC-2998 colon = test system: HCC-2998 colon
DU-145 prostate = test system: DU-145 prostate
NCI/ADR-RES ovarian = test system: NCI/ADR-RES ovarian
HS 578T breast = test system: HS 578T breast
EKVX NSCLC = test system: EKVX NSCLC
UACC-257 melanoma = test system: UACC-257 melanoma
MALME-3M melanoma = test system: MALME-3M melanoma
OVCAR-8 ovarian = test system: OVCAR-8 ovarian
A549 NSCLC = test system: A549 NSCLC
HOP-62 NSCLC = test system: HOP-62 NSCLC
HOP-92 NSCLC = test system: HOP-92 NSCLC
RXF 393 renal = test system: RXF 393 renal

CCN(CC)CCCC(C)Nc1c2ccc(Cl)cc2nc2ccc(OC)cc12 (configuration not stated)
TGI (MDA-MB-231 breast): 29.5 µM [sample A] and 2.79 µM [sample B]

COc1cc(C(=O)/C(C)=C/c2c[nH]c3ccccc23)cc(OC)c1OC
GI50 (NCI-H226 lung): 6.15 nM and 1.77 µM

CCOC(=O)C(Cc1c[nH]c2ccc(N)cc12)(NC(C)=O)C(=O)OCC
GI50 (M14 melanoma): 52.2 µM and > 1 mM

CCN(CC)CC(O)CNc1ccc(NCC2CO2)c2c1C(=O)c1ccccc1C2=O (configuration not stated)
TGI (HL-60(TB) leukemia): 33 nM and 1.25 µM
TGI (K-562 leukemia): 174 nM and 11.5 µM
GI50 (CCRF-CEM leukemia): 2.52 nM and 62 nM
TGI (CCRF-CEM leukemia): 165 nM and > 100 µM
TGI (SR leukemia): 310 nM and 92.2 µM

CC(C)(C#N)c1cc(Cn2cncn2)cc(C(C)(C)C#N)c1
GI50 (SK-MEL-2 melanoma): 101 nM and 825 µM

COC(=O)CCc1cc(OC)c2c(c1)C(C(=O)OC)C(c1ccc(OC)c(OC)c1)O2 (configuration not stated)
GI50 (MDA-MB-435): > 100 µM [sample A, 1 test] and 2.3 µM [sample B, mean of 2 tests]
TGI (MDA-MB-435): > 100 µM [sample A, 1 test] and 8.9 µM [sample B, mean of 2 tests]
GI50 (K-562 leukemia): > 100 µM [sample A, 1 test] and 3.54 µM [sample B, mean of 2 tests]
GI50 (HCT-15 colon): > 100 µM [sample A, 1 test] and 5.34 µM [sample B, mean of 2 tests]
GI50 (CCRF-CEM leukemia): > 100 µM [sample A, 1 test] and 7.42 µM [sample B, mean of 2 tests]
GI50 (NCI-H226 lung): > 100 µM [sample A, 1 test] and 2.87 µM [sample B, 1 test]
GI50 (MCF7 breast): > 100 µM [sample A, 1 test] and 8.9 µM [sample B, mean of 2 tests]
GI50 (MDA-N): > 100 µM [sample A, 1 test] and 3.01 µM [sample B, mean of 2 tests]
GI50 (HCT-116 colon): > 100 µM [sample A, 1 test] and 7.27 µM [sample B, 1 test]

Cc1c[nH]c2c(O)cc3c(c12)[C@H](CCl)CN3C(=O)c1cc2cc(NC(=O)Nc3ccc4[nH]c(C(=O)N5C[C@@H](CCl)c6c5cc(O)c5[nH]cc(C)c65)cc4c3)ccc2[nH]1
TGI (M14 melanoma): 26.8 nM and > 100 µM
TGI (MDA-MB-435): 34.1 nM and > 100 µM
TGI (SF-295 CNS): 45.1 nM, 1.41 nM, > 100 µM, 0.000888 µg/mL
TGI (NCI-H460 lung): 35.5 nM and 28.1 µM
TGI (SN12C renal): 128 nM, 29.6 µM, 8.9e-07 µg/mL, 0.000888 µg/mL
TGI (DMS 273 small cell lung): 8.9e-07 µg/mL and 0.000888 µg/mL
TGI (HL-60(TB) leukemia): 1.92 nM, 52.5 nM, 8.9e-07 µg/mL, 0.00108 µg/mL
TGI (K-562 leukemia): 1.23 µM, > 100 µM, 4.7e-06 µg/mL, 0.00869 µg/mL
TGI (ACHN renal): 57.3 nM and 17.1 µM
TGI (PC-3 prostate): 5.8 nM and > 100 µM
TGI (RPMI-8226 leukemia): 4.96 nM, > 100 µM, 8.4e-06 µg/mL, 0.0326 µg/mL
TGI (786-0 renal): 16.8 nM and > 100 µM
TGI (SK-MEL-28 melanoma): 33.1 nM, 35.6 µM, 8.9e-07 µg/mL, 0.00302 µg/mL
TGI (SNB-19 CNS): 43.8 nM, 464 nM, > 100 µM, 8.9e-07 µg/mL, 8.88 µg/mL
TGI (CCRF-CEM leukemia): 17.2 nM, 258 nM, > 100 µM, 1.3e-05 µg/mL, 0.0106 µg/mL
TGI (BT-549 breast): 5.21 nM and > 100 µM
TGI (SR leukemia): 36.4 nM and 21.7 µM
TGI (COLO 205 colon): 35.8 nM, 21.5 nM, 28.1 µM
GI50 (TK-10 renal): 1.44 nM and 40.8 µM
TGI (TK-10 renal): 4.05 nM and > 100 µM
TGI (OVCAR-5 ovarian): 49.5 nM, 584 nM, > 100 µM, 8.9e-07 µg/mL
TGI (SW-620 colon): 4.54 nM and > 100 µM
TGI (DMS 114 small cell lung): 2.1e-06 µg/mL and 0.0131 µg/mL
TGI (SF-539 CNS): 49.6 nM, 8.86 µM, 8.9e-07 µg/mL, 0.00264 µg/mL
TGI (DLD-1 colon): 5.4e-06 µg/mL and 8.88 µg/mL
TGI (MOLT-4 leukemia): 11.7 nM, 2.03 nM, 15 µM, 1.3e-06 µg/mL, 0.000903 µg/mL
GI50 (U251 CNS): 0.191 nM and 410 nM
TGI (U251 CNS): 23.2 nM and > 100 µM
TGI (UACC-62 melanoma): 30 nM, 33.3 µM, 8.9e-07 µg/mL, 0.00162 µg/mL
TGI (NCI-H23 lung): 29.6 nM, 41.6 µM, 0.00887 µg/mL, 0.00532 µg/mL
TGI (SNB-75 CNS): 68.1 nM, 1.96 nM, 8.48 µM, 8.9e-07 µg/mL, 0.00888 µg/mL
TGI (P388 leukemia): 1.6e-06 µg/mL and 0.00126 µg/mL
TGI (MDA-N): 26.8 nM and > 100 µM
TGI (CAKI-1 renal): 29.2 nM and > 100 µM
TGI (LOX IMVI melanoma): 18.3 nM and 77.6 µM
TGI (HCC-2998 colon): 1.07 nM, 95.3 µM, 1.8e-06 µg/mL, 0.0145 µg/mL
TGI (DU-145 prostate): 69.2 nM, 17.3 nM, > 100 µM
TGI (HCT-116 colon): 23.8 nM and 19.8 µM
TGI (NCI/ADR-RES ovarian): 25.3 nM, > 100 µM, 0.00887 µg/mL, 0.23 µg/mL
TGI (HS 578T breast): 99.7 nM, 2.61 nM, > 100 µM

CC(=O)N[C@H]1C=C[C@@H]2/C=C(C)/C=C/[C@@H](C)[C@H]([C@H](C)[C@H](O)[C@@H](C)NC(C)=O)OC(=O)/C=C/C=C(C)\C=C\[C@]2(C)C1
TGI (M14 melanoma): 22.6 nM and 6.37 µM
TGI (SF-295 CNS): 132 nM and 12 nM
GI50 (HL-60(TB) leukemia): 18 nM and 992 nM
GI50 (EKVX NSCLC): 289 nM and 13.9 nM
GI50 (UACC-257 melanoma): 71.9 nM and 4.5 nM
GI50 (MALME-3M melanoma): 38.8 nM and 871 nM
GI50 (OVCAR-8 ovarian): 832 nM and 4.5 nM
GI50 (A549 NSCLC): 70.1 nM and 4.5 nM
GI50 (HOP-62 NSCLC): 103 nM and 9.75 nM
GI50 (NCI-H23 lung): 1.27 µM and 35.2 nM
TGI (SNB-75 CNS): 26.7 nM and 6.56 µM
TGI (HOP-92 NSCLC): 176 nM and 11.4 nM
TGI (RXF 393 renal): 4.65 µM and 317 nM

O=c1ccn(C2OC(CO)C(O)C2F)c(=O)[nH]1 (configuration not stated)
GI50 (CCRF-CEM leukemia): > 1 mM [sample A, 1 test] and 34.4 µM [sample B, mean of 2 tests]
